Article PMC4336329 (PLoS ONE, 2015)
In all, about 310,000 compounds went through this assay and about 2,200 (0.71%) showed an effect of 50% or more. Effects have a minus sign here. This is one part of the list.

target: human ether-à-go-go-related gene (hERG) potassium channel (human, UniProt Q12809); assay: primary screen, population patch clamp on CHO cells stably expressing hERG
Sequence (Q12809 whole entry, looked up): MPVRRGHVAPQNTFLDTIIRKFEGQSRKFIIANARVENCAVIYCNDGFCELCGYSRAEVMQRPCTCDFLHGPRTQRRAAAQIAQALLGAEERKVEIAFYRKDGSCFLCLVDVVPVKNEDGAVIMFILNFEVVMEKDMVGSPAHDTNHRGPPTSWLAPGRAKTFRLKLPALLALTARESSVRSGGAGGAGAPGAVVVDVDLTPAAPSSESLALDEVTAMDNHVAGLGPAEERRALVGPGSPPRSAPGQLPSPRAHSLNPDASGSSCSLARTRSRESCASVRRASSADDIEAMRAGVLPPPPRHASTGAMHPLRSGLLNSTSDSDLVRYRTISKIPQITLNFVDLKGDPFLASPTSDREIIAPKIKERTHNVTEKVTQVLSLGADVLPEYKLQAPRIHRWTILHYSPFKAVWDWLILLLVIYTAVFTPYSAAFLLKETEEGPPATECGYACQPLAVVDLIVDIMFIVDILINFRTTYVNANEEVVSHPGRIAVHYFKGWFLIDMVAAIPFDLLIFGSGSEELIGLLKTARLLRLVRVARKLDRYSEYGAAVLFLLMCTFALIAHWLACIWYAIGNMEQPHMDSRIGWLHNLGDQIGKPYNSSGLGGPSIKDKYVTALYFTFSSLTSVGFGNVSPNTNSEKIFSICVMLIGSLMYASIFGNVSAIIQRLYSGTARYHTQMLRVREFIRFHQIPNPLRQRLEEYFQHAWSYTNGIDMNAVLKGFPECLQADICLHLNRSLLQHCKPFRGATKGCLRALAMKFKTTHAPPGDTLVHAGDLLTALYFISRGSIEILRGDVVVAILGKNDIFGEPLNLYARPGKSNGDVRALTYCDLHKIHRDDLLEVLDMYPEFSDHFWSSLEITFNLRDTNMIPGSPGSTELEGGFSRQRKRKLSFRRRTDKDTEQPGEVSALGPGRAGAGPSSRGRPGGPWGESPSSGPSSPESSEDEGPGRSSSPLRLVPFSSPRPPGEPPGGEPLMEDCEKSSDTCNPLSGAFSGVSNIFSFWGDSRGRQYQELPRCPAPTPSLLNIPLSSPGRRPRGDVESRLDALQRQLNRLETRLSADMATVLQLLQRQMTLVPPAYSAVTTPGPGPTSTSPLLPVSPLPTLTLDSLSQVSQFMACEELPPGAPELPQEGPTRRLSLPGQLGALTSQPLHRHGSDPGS

Row | SMILES | hERG current change (%, negative = inhibition) at 1uM
1 | CCOc1cc2[nH]c(=O)n(Cc3ccc(C(=O)NCCCN4CCCC4=O)cc3)c(=O)c2cc1OCC | 16.9%
2 | CCc1nnc(NC(=O)C2CCN(C(=O)NC3CCCCC3)CC2)s1 | 3.69%
3 | O=C(NNS(=O)(=O)c1ccccc1)c1ccc([N+](=O)[O-])cc1 | 12.7%
4 | Cc1ccc(C(=O)CSc2nnc3c4ccccc4nc(C(C)(C)C)n23)cc1 | 12.2%
5 | O=C(N/N=C/c1cccc2nccnc12)c1ccccc1O | 15.1%
6 | O=C(O)c1ccc(/C=C2\CCCc3c2nc2ccccc2c3C(=O)O)cc1 | 16.4%
7 | CCN(C(=O)COC(=O)Cc1coc2cc(C)ccc12)c1c(N)n(Cc2ccccc2)c(=O)[nH]c1=O | 11.2%
8 | CC1(C)C(=O)OC(/C=C/c2cccc([N+](=O)[O-])c2)C(C)(C)C1=O (stereo not shown) | 16%
9 | CCc1ccc(C2C(C#N)=C(N)Oc3n[nH]c(CC(=O)OC)c32)cc1 (stereo not shown) | 9.77%
10 | CCn1c(SCC(=O)c2ccc3ccccc3c2)nnc1-c1ccco1 | 11%
11 | CC(=O)c1ccc(N(CC(=O)NCC2CCCO2)C(=O)CCC(=O)Nc2cc(C)on2)cc1 (stereo not shown) | 18.8%
12 | COC(=O)c1[nH]c2cc(C)ccc2c1NC(=O)CN1CCCc2ccccc21 | 8.77%
13 | CCOC(=O)Cc1csc(NC(=O)c2ccc(S(=O)(=O)N(CCOC)CCOC)cc2)n1 | 5.39%
14 | Cc1ccc(S(=O)(=O)c2ccc(Cl)cc2)cc1S(N)(=O)=O | 12.7%
15 | Cc1ccc(NC(=O)C(OC(=O)c2ccc(NC(N)=O)cc2)c2ccccc2)cc1Cl (stereo not shown) | 1.35%
16 | CC1C(C#N)=C(N)OC2=C1C(=O)CC(C)(C)C2 (stereo not shown) | 1.44%
17 | CCCCCOC(=O)CCN1C(=O)/C(=C2\SC(=S)N(CCC(=O)OCCCCC)C2=O)SC1=S | 11.6%
18 | CC(=O)c1sc(NC(=O)C=C(C)C)nc1C | 10.7%
19 | CN(CC(=O)NCc1ccncc1)S(=O)(=O)c1ccccc1 | 0.0167%
20 | Nc1c(C(=O)Nc2ccc(F)cc2)sc(=S)n1-c1ccccc1F | 9.98%
21 | COc1ccc2c(c1)c(N=NC(N)=S)c(O)n2CC(=O)c1ccccc1 | 9.64%
22 | CC1=CC(=O)c2ccccc2C1=O | 4.13%
23 | Cc1cc2nc3ccc(N(C)C)cc3nc2cc1N | 13.3%
24 | COc1cc(NS(=O)(=O)c2ccc(NC(=S)NC(=O)/C=C/c3ccc(OC)c(OC)c3)cc2)ncn1 | 9.81%
25 | CSc1cccc(NC(=O)c2ccc(Cl)nc2)c1 | 8.65%
26 | O=C(CCC(=O)Nc1ccccc1)NNS(=O)(=O)c1ccccc1[N+](=O)[O-] | 12.2%
27 | COc1cc(CN(C)CC(=O)c2[nH]c(C)c(C(C)=O)c2C)ccc1OC(F)F | -4.46%
28 | CN(Cc1ccc(Cl)cc1)C(=O)c1ccc2ccccc2n1 | -1.85%

Row | SMILES | hERG current change (%, negative = inhibition) at 1uM
29 | COCCCNC(=O)C1CCCN(C(=O)Nc2ccc(OC)cc2)C1 (stereo not shown) | -4.48%
30 | COc1ccccc1N1CCN(C(=O)CC2NC3CCCCC3NC2=O)CC1 (stereo not shown) | -1.28%
31 | COc1cc2c(cc1OC)C(c1cccc(OC)c1OC)CC(=O)N2 (stereo not shown) | -12.7%
32 | CN1CCN(C2=Nc3cc(F)ccc3Cc3ccccc32)CC1 | -4.57%
33 | O=C1CCN(Cc2ccccc2)CCN1[C@H](COc1ccccc1)c1ccccc1 | 2.66%
34 | CC(=O)Nc1ccc(SCC(=O)N(CCC#N)c2ccc(C)cc2)cc1 | -9.84%
35 | CC(=O)Oc1oc(-c2ccccc2)nc1C=Nc1ccccc1 | 10.1%
36 | O=C(COc1ccc(S(=O)(=O)N2CCOCC2)cc1)N1CCN(c2ccccc2)CC1 | 13.5%
37 | CCc1ccc(S(=O)(=O)NCc2csc(-c3cccnc3)n2)s1 | 9.17%
38 | CC1CN(C2CCN(S(=O)(=O)c3ccccc3)CC2)CC(C)O1 (stereo not shown) | 4.56%
39 | O=C(OCC(=O)N1CCCCC1)c1ccc2c(c1)C(=O)N(Cc1ccco1)C2=O | -6.09%
40 | Cn1cc(Br)c(C(=O)NC2CCCCC2)n1 | -1.04%
41 | CCCN(CCC)Cc1c(C(=O)N/N=C/c2cccs2)nnn1-c1nonc1N | 2.55%
42 | CSc1ccc(/C=N/NC(=O)CN2CCN(Cc3ccccc3)CC2)cc1 | -60%
43 | CCOc1ccc(S(=O)(=O)NCCC(=O)NCC(c2ccco2)N2CCCCC2)cc1 (stereo not shown) | 7.47%
44 | Cc1ccc(S(=O)(=O)CCC(=O)OCC(=O)NC(=O)c2ccccc2)cc1 | 19.8%
45 | COc1ccccc1N1CCN(C(c2ccccc2Cl)c2nnnn2C(C)(C)C)CC1.Cl (stereo not shown) | 14.1%
46 | CC(C)n1nc(C(=O)Nc2ccccc2N2CCOCC2)c2ccccc2c1=O | -6.47%
47 | COc1cccc2cc(-c3nnc(SCC(=O)Nc4cc(C(F)(F)F)ccc4Cl)n3N)oc12 | 13.4%
48 | O=C(c1ccc(=O)[nH]c1)N1CCN(S(=O)(=O)c2ccccc2)CC1 | 7.35%
49 | CC1CCN(S(=O)(=O)c2cccc3cccnc23)CC1 | 12.9%
50 | CCC(=O)N1CCN=C1SCc1ccc(F)cc1 | 4.87%
51 | CC(=O)NCc1ccc(S(=O)(=O)N2CCN(c3ccccn3)CC2)cc1 | 15.3%
52 | Cc1ccc(S(=O)(=O)N2CCN(C(=O)c3cc4c(C)nn(-c5ccccc5)c4s3)CC2)cc1 | -6.86%
53 | C=CCN(c1ccccc1)S(=O)(=O)c1cccc(C(=O)OCC(=O)NC2CC2)c1 | 10.4%
54 | O=CNC(Cc1ccccc1)C(=O)O (stereo not shown) | 3.73%
55 | COc1ccc(CN(C)C(C)C(=O)Nc2cccc3ccccc23)cc1 (stereo not shown) | 11.2%
